The source gives no read counts; variants with many changes may rest on few reads.
B1: LINE1-mini (parent)
chain: GGCAGAGCUCAACACAGCGUGGCAAAGUGGCUGUGGCUAGACUGCC

Variants of: B1
Assay: self-cleavage, relative activity (ratio to wild type); higher = more cleavage; in vitro, sequencing; the parent is a self-cleaving ribozyme

Variant | self-cleavage
G17A C18U C37U | 0.04
A16G A24U U28A | 0.03
A16U C18A A24C G36C | 0.01
G17A C18A U34A | 0.02
A16G G17C C45A | 1.25
A16G G35U G40U | 0.03
A16U U32G G44U C45G | 0.04
A16U G27C G40A | 0.06
A16U G21C C42U | 0.09
A16G C18U U20G C23U C46G | 0.12
A16C U28C A39U | 0.03
G17A C18G G21U G36C U38C | 0
A16U G21A G36C A39U A41C | 0.02
A16G C31A G36A | 0.03
A16U C23U G40U | 0.02
A16U A24U G36C C45A | 0.02
A16G A25U G29U G35U | 0.02
A16U C23G G27C | 1.07
A16G G27U C37G | 0
A16G U28A A41C | 0.09
A16U C18U C31U U38G | 0.01
A16U G22C G33A C42G U43A | 0.09
A16U A25G G35U | 0.03
A16G G27A U34A | 0.03

Variant | self-cleavage
A16G C23U U43G | 0.02
A16U G19C U38G C42U C45A | 0.01
G17A C23A A24U A39G G44C C46A | 0.01
A16G G29C G44U | 0.2
A16C G35C C45G | 0.03
A16G G17U U20A U34G | 0.07
A16G C23U A41G U43C | 0.01
A16U C18G U43C | 0.01
A16G C18G A26C G35C C45A | 0.02
A16G C18U G21C G27A C31U | 0.02
A16U A25G A26C | 0.06
A16G G22A C37U U38A G44C | 0.06
A16G U34A U43C | 0.05
A16G G19U G21U U28A | 0.72
A16G G35A C45G | 0.01
A16G G21U C45U | 0.57
G17A A24C G30U | 0.07
A16U A41U G44A | 0.02
A16C G40A G44A | 0.09
A16U C18G U32G A41U | 0.02
A16G G22C U28C | 0.07
A16G G29U G36A C42G | 0.01
A16G U34A C45U | 0
G17A C23U G29U | 0.08

Variant | self-cleavage
G17A A26C C42A | 0.04
A16G A26U C37A | 0.01
A16U C23A A24G G35C A39U | 0
A16U G29A U32G | 1.41
A16C G40U A41G C46G | 0
A16G C23G C37G | 0.01
A16U C18G G33C C45A | 0.01
G17A A25G U43C | 0.02
A16U G21A A24G | 0.1
A16U G35U G40A | 0.05
A16C U20G G30U | 0.04
G17A C23G U28A A39G | 0.03
A16C U34G G35U | 0.04
A16C G36U C45A | 0.03
A16G G22C G36C | 0.01
A16C G36A A41C | 0
A16U G33A C45U | 0.09
A16G C18U G29A G33U | 0.1
G17A A26U C31G C42A | 0.04
A16U G30C G33U U38A A41C | 0.03
A16G A26G G36A C46U | 0.03
A16G U38A A41U | 0.04
A16G G44A C45U | 0.04
G17A C18U G44U C46A | 0.01

Variant | self-cleavage
A16U U32C C42A | 0.03
A16U C18U G40U | 0.12
A16U A26G G40C | 0.03
A16U C18U G21U G27U G40U | 0.06
A16G A24C G30C C37U | 0.01
A16G C31G U34C A39G A41C | 0.02
A16G G21C G22C G27A G44C | 0.02
A16G A26G U32G G36A A39U C42G | 0.04
A16U G17A C37U | 0.54
A16G C18A A24C A26U | 0.07
G17A A24G A26C G35U | 0.03
A16U G22U A39G | 0
A16G A39C G40U | 0.02
A16U C23U G27A U34G A41G | 0.03
A16U G27A G36U U43G | 0.02
A16G G19C A24U | 0.04
A16C U34A C42G | 0.03
A16C U28C C31A G36A | 0.04
A16U G27U U34A | 0.03
A16U G22A G29U | 0.11
A16G C18G C42G | 0.14
A16G U20C G30A C42U G44C | 0.11
A16U A24C G33C G40C | 0.02
A16U C37U C42G | 0.01

Variant | self-cleavage
A16C U20C C46G | 0.08
A16U A25C U32C C37G | 0.01
A16G G27A C42U | 0.01
A16U G27A G30U U32C | 0.21
A16G G17C G22U G36U C42U | 0
G17A C23G U32G | 0.04
A16U G30C C42A | 0.02
G17A C23U A26G | 0.85
G17A A26U U43G C46U | 0.08
A16U C31U G44C | 0
G17A A26C G33C | 0.05
A16U U34G A39C | 0.02
A16U C18U G36U C46A | 0.02
A16G A26U U28C C31G C42U | 0.03
A16U C18G A25U | 0.03
A16U G29U C46G | 0.44
A16G C23U U38A G44U | 0.01
A16U U38C A39C G44A | 0
A16G G21U G27C C37G | 0.02
A16G G27C G30C | 0.84
A16G U20C G21U G30C | 0.11
A16G U38C C46U | 0.18
A16G U28G C37U A39G | 0
A16U G19A U28A G40U | 0.21

Variant | self-cleavage
A16U C18A C31U G35A | 0
A16C G44A C46G | 0.05
A16G G17C U20A C45A | 0.13
A16U G19C G33U | 0.01
A16G G21U G27U C37A | 0.03
A16C U20G G27C C31A G40C C42G | 0.01
A16G G17U A39G | 0.07
A16U U28C G36U | 0.09
G17A A26U G40C | 0.03
A16U A25U G35U G40U | 0.03
A16C U38C G40A C46A | 0.04
G17A C18G A39G A41U | 0.04
A16U G17C C18G | 0.12
A16G G17C G33C | 0.01
A16U G36A U43C | 0.88
A16G A39G G44U | 0.01
A16G G21A A24C G30C C31G G33A G35C | 0.01
A16U U34C A39G C46A | 0.09
A16U A24G G35C | 0.02
A16U U38G G44C | 0.04
A16C U20A G35U | 0.01
G17A C18G G33U C37U | 0.05
A16G A26U C46U | 0.45
A16G A26U C46A | 0.05

Variant | self-cleavage
A16C U38A C42U | 0.01
A16U G22C U32C U43C C45G | 0.02
G17A A25C G40U | 0.09
A16C G36U U43C | 0.04
A16U C31G U43C C45U | 0.03
A16G G17U G21C C23A | 0.06
A16U C31U U34G U38C | 0.04
G17A C18A C46A | 0.03
A16G U20G U34A G40U | 0.02
A16G G22U U28A C37A | 0.02
A16U C31G A39G | 0.04
G17A C23U U38A G40C | 0
A16G C31U A39U G40U | 0.01
A16U U28G C45A | 0.02
G17A A24G A41G | 0.01
A16C U20C U32A | 0.02
A16U G17C U20C | 0.15
A16G U20A G35U | 0.05
A16G G19U G27A U28G G30U C31U | 0.13
A16C U20G C45A | 0.02
A16U G19C U28A G36A | 0.06
A16U G19C G22A | 1.82
A16G C31U G40A G44A C46U | 0.02
